{"source": "PubChem BioAssay AID588855", "about": "(National Center for Advancing Translational Sciences (NCATS), 2011)", "note": "Among all 410,000 compounds or so, about 5,000 (1.2%) were called active. The inconclusive results got no clear call from the source; some entries with a clear call stand among them for comparison. The call rests on the fitted dose curve; in most records, active means well fitted inhibition curve with a large enough effect; inconclusive means small, poorly fitted or top-dose-only effect; inactive means no such curve, though single readings can be large or run the other way. Potencies beside an inconclusive call are fits to weak or partial responses and may not hold up. Potency means the concentration at half of the fitted maximal effect; tags describe the fitted curve by direction and shape."}
{"test": "qHTS for Inhibitors of TGF-b; further: nearly all actives have a fitted effect of over 65% in size", "details": "HepG2 CAGA-GFP TGF-b/SMAD3 reporter, GFP fluorescence, 18 h, TGF-beta stimulated, 500 pg/mL final; series mostly up to 46.1 µM", "summary_of_the_method": "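Per well, imaged GFP fluorescence of HEPG2 CAGA-GFP cells gives the signal; cells get compound, then TGF-beta (500 pg/mL final), 18 h at 37 degrees C; %Activity versus -TGF-beta and +DMSO controls.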"}
{"smiles": "CCOCCCNC(=S)NCCCNc1nc2c(C)cc(C)cc2cc1C#N", "Potency": "inconclusive: 11.2 µM [inhibitor, partial curve, poor fit]"}
{"smiles": "Fc1ccc(CNC(=S)Nc2cccc(Cl)c2)cc1", "Potency": "inconclusive: 35.5 µM [inhibitor, single point]"}
{"smiles": "CN(c1ccccc1)S(=O)(=O)c1ccc(C(=O)N2CCN(c3ccccc3Cl)CC2)cc1", "Potency": "active: 15.8 µM"}
{"smiles": "CCCCn1c(N)c(N(CC(C)C)C(=O)C2CC(=O)N(c3ccc4c(c3)OCCO4)C2)c(=O)[nH]c1=O", "note": "(stereo not drawn)", "Potency": "inactive"}
{"smiles": "CN(C)CCN1C(=O)C(=O)/C(=C(/O)c2ccc(S(=O)(=O)N3CCOCC3)cc2)C1c1ccccc1", "note": "(stereo not drawn)", "Potency": "inactive"}
{"smiles": "Cc1cc(Cl)cc(C)c1OCC(=O)NC1CCCCCC1", "Potency": "inconclusive: 1 µM [inhibitor, full curve, poor fit]"}
{"smiles": "Cc1ccc(Nc2nnc(SCC(=O)Nc3cccnc3Cl)s2)cc1C", "Potency": "inconclusive: 3.16 µM [inhibitor, full curve, poor fit]"}
{"smiles": "Cc1onc(-c2c(F)cccc2Cl)c1C(=O)Nc1nc2ccccc2[nH]1", "Potency": "inconclusive: 10 µM [inhibitor, partial curve, poor fit]"}
{"smiles": "CC(C)[C@H](NC(=O)c1ccc(Cl)cc1)C(=O)OCC(=O)N1CCN(c2ccccc2)CC1", "Potency": "inactive"}
{"smiles": "Cn1c(=O)c2c(-c3ccccc3)n(-c3ccccc3F)cc2n(C)c1=O", "Potency": "inconclusive: 3.16 µM [inhibitor, partial curve, poor fit]"}
{"smiles": "Cc1ccc(O)c(N=Nc2ccc(S(=O)(=O)N3CCCC3)cc2)c1", "Potency": "inactive"}
{"smiles": "CC1(C)[C@@H](O)CC[C@]2(C)[C@H]3C(=O)C=C4[C@@H]5C[C@@](C)(C(=O)O)CC[C@]5(C)CC[C@@]4(C)[C@]3(C)CC[C@@H]12", "Potency": "inactive"}
{"smiles": "COc1cccc(-n2nc(-c3ccnn3-c3cccc(Cl)c3)c(=O)n(C)c2=O)c1", "Potency": "inconclusive: 35.5 µM [inhibitor, single point]"}
{"smiles": "NNC(=O)c1cc(-c2cccs2)nc2ccccc12", "Potency": "inactive"}
{"smiles": "Cc1ccc(CN2CCC(CNC(=O)c3cc4ccc5cccnc5c4[nH]3)CC2)cc1", "Potency": "inconclusive: 20 µM [inhibitor, partial curve, poor fit]"}
{"smiles": "CCOc1ccc(-c2[nH]ncc2-c2ccccc2)c(O)c1", "Potency": "inconclusive: 35.5 µM [inhibitor, single point]"}
{"smiles": "O=C(C[C@H]1C[C@H](C(=O)N2CCOCC2)[C@@]2(CCC3CCCC3)c3[nH]c4cc(-c5ccco5)ccc4c3CCN2C1=O)NCCCn1ccnc1", "Potency": "inconclusive: 35.5 µM [inhibitor, single point]"}
{"smiles": "COc1ccc2sc(-c3ccccc3OC)c(-c3ccc(O)cc3)c2c1", "Potency": "inconclusive: 17.8 µM [inhibitor, single point]"}
{"smiles": "COc1ccccc1/C=N/NC(=S)NCc1ccco1", "Potency": "inactive"}
{"smiles": "Cc1ccc2nc(CSc3nnc(NC(=O)COc4ccccc4F)s3)cc(=O)n2c1", "Potency": "inactive"}
{"smiles": "Cc1ccc(NC(=O)Nc2cccs2)nc1", "Potency": "inconclusive: 22.4 µM [inhibitor, partial curve, poor fit]"}
{"smiles": "CCN1CCN(/C=N/c2nc3c(s2)CCCC3)CC1", "Potency": "inactive"}
{"smiles": "CC(=O)Nc1cccc(NCC(=O)Nc2cc(S(=O)(=O)N3CCCCC3)ccc2Cl)c1", "Potency": "inconclusive: 35.5 µM [inhibitor, single point]"}
{"smiles": "O=S(=O)(c1cnc[nH]1)N1CCN(C(c2ccc(F)cc2)c2ccc(F)cc2)CC1", "Potency": "inactive"}
{"smiles": "CCOc1ccccc1C(=O)Nc1cc2c(cc1N1CCCC1)n(CC)c(=O)n2CC", "Potency": "inconclusive: 14.1 µM [inhibitor, partial curve, poor fit]"}
{"smiles": "CCCCOC(=O)c1ccc(NC(=O)c2ccc3c(c2)CCN3S(=O)(=O)c2ccccc2)cc1", "Potency": "inactive"}
{"smiles": "COc1cccc(N2CCN(C(C)C(=O)NC34CC5CC(CC(C5)C3)C4)CC2)c1", "note": "(stereo not drawn)", "Potency": "inactive"}
{"smiles": "CCCCC(c1nnnn1CCOC)N1CCN(C(=O)c2ccco2)CC1", "note": "(stereo not drawn)", "Potency": "inactive"}
{"smiles": "Cc1cccc(-n2c3nc(=O)[nH]c(=O)c-3cc3cc([N+](=O)[O-])ccc32)c1", "Potency": "inconclusive: 12.6 µM [inhibitor, partial curve, poor fit]"}
{"smiles": "Cc1ccc(-c2nc3ccccc3[nH]2)cc1NC(=S)NC(=O)c1ccccc1Br", "Potency": "inconclusive: 4.47 µM [inhibitor, partial curve, poor fit]"}
{"smiles": "O=C(NCc1ccc(F)cc1)c1cc(C2CCCCN2C(=O)c2ccc(Cl)cc2)on1", "note": "(stereo not drawn)", "Potency": "inconclusive: 31.6 µM [inhibitor, single point]"}
{"smiles": "CCc1cccc2c(SC(C)C(=O)NCC3CCCO3)nc(-c3ccccc3)nc12", "note": "(stereo not drawn)", "Potency": "inactive"}
{"smiles": "COc1ccc(Cc2nnc(Nc3c(C)cccc3C)o2)cc1OC", "Potency": "inactive"}
{"smiles": "CCc1ccc(-n2c(Cc3ccccc3)n[nH]c2=S)cc1", "Potency": "inconclusive: 35.5 µM [inhibitor, single point]"}
{"smiles": "O=C(COC(=O)CCc1ccc(S(=O)(=O)N2CCOCC2)cc1)NC1CCCC1", "Potency": "inactive"}
{"smiles": "O=C(c1cc(-c2ccccc2)nc2ccccc12)N1CCCc2ccccc21", "Potency": "inconclusive: 22.4 µM [inhibitor, single point]"}
{"smiles": "C[N+]1(CCC(=O)c2ccccc2)CCCCC1", "Potency": "inconclusive: 25.1 µM [inhibitor, single point]"}
{"smiles": "COc1ccc2c(c1)/C(=C/c1cc(OC)c(OC)c(OC)c1)C(=O)N2", "Potency": "inconclusive: 6.31 µM [inhibitor, single point]"}
{"smiles": "O=C(NNC(=O)c1cc(S(=O)(=O)N2CCOCC2)ccc1Cl)c1ccc(F)cc1", "Potency": "inactive"}
{"smiles": "COc1ccc(/C=N/NC(=O)Cc2csc(Nc3cccc(C(F)(F)F)c3)n2)c(OC)c1", "Potency": "inconclusive: 22.4 µM [inhibitor, single point]"}
{"smiles": "COCc1[nH]nc2c1C(c1ccc(OC)c(OC)c1)C(C#N)=C(N)O2", "note": "(stereo not drawn)", "Potency": "inactive"}
{"smiles": "Nc1sc(-c2ccccc2)n[n+]1Cc1cccc2cccnc12", "Potency": "inconclusive: 20 µM [inhibitor, single point]"}
{"smiles": "CCOC(=O)c1c(C)[nH]c(C)c1S(=O)(=O)N1CCCC(C(=O)N2CCN(c3ccc(Cl)cc3)CC2)C1", "note": "(stereo not drawn)", "Potency": "inconclusive: 7.94 µM [inhibitor, partial curve, poor fit]"}
